Assay results as given in the supplement of paper PMC3334620.
Over roughly 33,000 sequences, “E-score (-0.5 to 0.5)” has its median near -0.04; the highest 2% begin near 0.36. The list shows a part of the results.

The sequences below were run against T1, Hmlalpha2 (UniProt P0CY09) (assay: PBM E-score (8-mer binding enrichment) (E-score (-0.5 to 0.5)); higher = stronger / more preferred TF binding; most listed sequences are background and not binding sites). Details: protein concentration: 200 nM; construct: GST-full length.
T1 sequence: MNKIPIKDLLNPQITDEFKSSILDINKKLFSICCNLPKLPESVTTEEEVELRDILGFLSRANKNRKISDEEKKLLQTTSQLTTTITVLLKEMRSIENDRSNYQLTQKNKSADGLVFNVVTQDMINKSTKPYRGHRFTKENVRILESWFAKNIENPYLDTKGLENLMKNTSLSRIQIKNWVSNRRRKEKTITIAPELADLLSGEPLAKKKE
Procedure, shortened: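 Using PURExpress in vitro transcription/translation, GST-tagged yeast transcription factors were made in full-length or DNA-binding-domain form. These were applied at about 100-200 nM to double-stranded universal all-10-mer Agilent arrays, and bound protein was detected with fluorescent anti-GST. Scans were normalised with masliner before the Universal PBM Analysis Suite assigned E-scores to ungapped eight-base words pooled with their reverse complements.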

Sequence | PBM E-score
ATTTAGAA | 0.0643
CCGTACCG | -0.262
ATATTATA | 0.193
ATACACCG | 0.145
ACGGAAGA | 0.114
CCGGTCTA | -0.22
AGGAGCTC | -0.217
AACCATTA | 0.229
CAGGTCTA | -0.12
AGACCATC | -0.23
GAGGATGA | -0.145
CACTCCTC | -0.217
CTACGACC | -0.116
AGCTCCGG | -0.188
GACAAAGA | 0.111
GGCACAAA | 0.0169
CAGTGTAA | 0.343
CACGAGCG | -0.00918
GGACCCAC | -0.244
CTGATACC | -0.15
GACTCATA | -0.141
AGAAATCG | -0.0591
TCGCGTAA | 0.45
CGGCGCTC | -0.173
CTTCTCCC | -0.241

Sequence | PBM E-score
AGTCTCGA | -0.0296
GTCCAGCA | -0.148
CGGTGCTC | -0.0964
ATAATACG | 0.239
AACGGAAA | -0.0341
CACTCACG | 0.0729
ACATACTG | 0.238
CAGGCCCG | -0.285
CTTTTGAA | -0.0152
CCTAATCG | -0.0771
CTTGGAGA | -0.0945
CGCGAAAA | 0.0338
AGTTAAGC | 0.176
ACTAACAC | 0.293
AAGTCTCA | -0.155
AAAGATAG | -0.026
CTAATGAA | 0.0377
AACGCATC | 0.0778
ACCAGTAC | -0.0431
CACGCACC | 0.111
ACTAGGCT | 0.0347
CCTTCTAG | -0.215
CTGTCTGC | -0.191
AGGCTAGA | -0.208
CTCAACCA | 0.0306

Sequence | PBM E-score
CGACCCCA | -0.0768
ACGGTTGG | -0.144
CTCATCAA | -0.127
CGATAGCA | -0.0905
ATGATCTA | 0.13
ATTCGCTA | 0.0939
AAACCGTA | 0.0514
AATCATCC | 0.0141
AGGGCGCC | -0.241
GATATAGA | -0.0128
CATACGGC | -0.079
CAGGCTTA | -0.146
TAAACCTA | 0.118
TCCGTAGA | -0.144
ACGGTAGG | -0.176
AGGTCACT | -0.133
AGCGAACC | -0.00909
CTGGGTAC | -0.172
AGTGGAAC | -0.0118
CCCAGCGG | -0.199
ATTGGGCC | -0.15
CGGCATTA | 0.118
TCGTACGA | 0.11
GCCTTCCC | -0.304
GCATGGCC | -0.0405

Sequence | PBM E-score
ATATAATC | 0.149
AACCACGG | -0.23
CTGGGGGA | -0.422
CAATGGGG | -0.166
CATAGTTC | 0.0145
CGAACACC | -0.105
AGGAGGAC | -0.269
CCGCTCTA | 0.0597
AACAAAAT | 0.193
CAGGCTCC | -0.267
AATACGAG | 0.229
AATGAACG | 0.139
AACCTACC | -0.247
AACCATCC | -0.135
ACTATCGC | -0.079
TATAAAGA | 0.0402
CCCGGCCC | -0.261
ACTAAGTC | -0.157
CTTCTTAC | 0.046
GCCAATAA | 0.0351
AAAGCTGT | -0.0214
CAGCCCAC | -0.0566
AGCTAGGG | -0.204
ACTCTCGA | 0.093
ACCCTATG | -0.0103

Sequence | PBM E-score
CGTATTAA | 0.268
ACAGTCCG | -0.117
GCGGGGCC | -0.242
GCTCGAAA | -0.297
CAACCGAG | -0.249
GCACGCCA | -0.337
ATTGTTCG | 0.242
GCGGCGCC | -0.0408
TCTCTAAA | -0.118
CAGCGAAG | -0.136
GACCTCAA | -0.067
CCCACCGC | -0.285
ATCTCCTG | -0.0358
CTTTTCGA | 0.0253
GTATCGAA | 0.0617
CGAACAAA | 0.0922
TATTCGCA | 0.137
ATAGAGGC | -0.101
CCATATGA | -0.136
ATTCAGGA | -0.119
AGTATCGC | 0.0494
CTTCACGA | -0.299
GCATGGTA | 0.189
AAAGAACT | 0.116
CCCTCACA | -0.133

Sequence | PBM E-score
ACCATCTC | -0.178
TCTGCCCA | -0.194
AGTGCGAT | -0.0424
GGTTCAGA | -0.235
GGTTTTGA | -0.0124
CTTTTGGA | -0.174
AGAGGACC | -0.2
TCAATAAA | 0.0976
TCCAGAGA | -0.278
CCGATACC | -0.102
CAACCCAG | -0.073
CTGGACAA | -0.0143
CGACAAAA | 0.111
ACCACCGA | -0.248
CCTCCTGC | -0.236
AACCTTGG | -0.103
CGCATTAA | 0.201
TTGAGCAA | 0.00244
GAGTACGC | 0.0739
GCAGAGAC | -0.303
TACCGAGA | -0.124
CAGACCAC | -0.115
AATTTGAC | 0.204
GACTCAGA | -0.358
AAGCCCCG | -0.127

Sequence | PBM E-score
ATTATAAA | 0.116
CCTAGCGA | -0.132
ACTGCATC | -0.0503
CGGTTAAA | -0.00837
GAGGTTGA | -0.12
GACGGTGC | -0.145
AGCGTTGA | 0.00374
GTGGCCAC | -0.093
ACTCGCGG | -0.0858
AGGGAGGC | -0.339
ATGTCACG | 0.172
CGATGATC | -0.0714
AAGACGAG | -0.11
GAGGCAAA | -0.218
ACTGGAAC | -0.106
TTTATAAA | 0.231
ATCGCTCG | -0.128
ACGATAAC | 0.144
ACTACACT | 0.253
AGTCGATG | -0.0586
AAGCCAGT | -0.183
ATGAGGTG | -0.035
GCAGGGTA | -0.17
TGGACACA | 0.144
AATCCCTG | -0.11

Sequence | PBM E-score
CCCGTCCC | -0.318
CAAGGCTC | -0.136
GTAACTGA | 0.111
CGAGCATA | -0.325
AAGTGCCA | 0.0324
GTTGTGGA | 0.0527
GGATGCAA | -0.0214
CGAAAAAC | 0.0238
CATTACAA | 0.411
AAACTGGA | -0.0493
CAGTATGG | -0.16
TCAACCGA | 0.0455
CAGCGTAA | 0.173
CCACAGTC | -0.295
CGATCGTC | -0.122
AAACATAT | 0.311
ATAGGGGC | -0.215
ACCGTTCC | -0.0822
CCGTGAGC | -0.159
AGAGACGA | -0.124
GCAGTGGC | -0.231
CACCAGTA | -0.0753
AAACGTCG | -0.0779
AATTATGT | 0.333
GAACTGGC | -0.269

Sequence | PBM E-score
AGAAGAGC | -0.256
AGACCACA | -0.122
CCGAATCG | -0.113
ACTACGCG | 0.337
GAGAGCTC | -0.3
ATCAGTTC | -0.103
AGATCCAG | -0.0629
CTCCACTA | -0.0436
AATCGCGT | 0.217
AATCGGTA | 0.0938
AGTTGGAA | -0.0867
TCACCTAA | 0.0634
GAATGTGA | -0.0574
CATTCGCA | -0.044
CCCACCAA | -0.14
AAGGCCCT | -0.0884
CTCAAAGC | -0.0843
AGTCGCAA | 0.049
ATTAATAG | 0.144
AGCGTACG | -0.0994
AGGGTCAT | -0.146
AACGTCGT | 0.0626
CTGGCTGA | -0.348
GTGTAGTA | 0.323
ACCTTAGC | -0.0149

Sequence | PBM E-score
CTAGAACA | 0.0794
CCGTAAGA | -0.133
TGAGCGAA | -0.0285
AACCCCGA | -0.0634
GGGCCCCC | -0.379
TGGTCCAA | -0.192
CTAGGGAG | -0.263
GACCTAAA | -0.0367
AGGTAGGA | -0.161
ACACGATA | 0.433
GAAAGCAA | 0.0633
ATAGTTAC | 0.245
AACCAACC | -0.0848
ACAGGTCG | -0.12
AATTGTGG | 0.0656
GTGGGGCA | -0.417
ATCACTTA | 0.18
GGCTCTGA | -0.0387
ATTAATCG | 0.102
TCTCATCA | -0.0405
CTGTAGGC | -0.0516
CTTACTTA | 0.0692
CACGTTAC | 0.231
GGTGTAAA | 0.351
CTACACTA | 0.208

Sequence | PBM E-score
GGTTTCTA | 0.0585
CTGTGTTA | 0.398
ATTATCCA | 0.0364
CTACGGCA | -0.12
GATTTAAC | 0.231
GTCGTTCA | -0.0406
CCGGCCAA | -0.32
CCTGCATC | -0.226
AATGCCAG | -0.208
ATGCGTAG | 0.214
ACGATACT | -0.0134
CTACATAC | 0.327
ATGCCACC | -0.264
CGGCGAGA | -0.174
ATTATAGC | -0.184
ATGCCTCA | 0.0436
CGGAGCAG | -0.196
CAGTGGAC | -0.169
GCTGGCGA | -0.212
TAGTCGAA | -0.0303
AGTACGAA | 0.0588
TATATGCA | 0.00434
CGCCAGCA | -0.0496
CAACAACA | 0.357
GTAGTAGA | 0.175

Sequence | PBM E-score
CGCCGACC | -0.274
CCGCACCC | -0.198
ACGCCCAG | 0.0316
CGAAGAGA | -0.0982
AGGCATCA | -0.225
TCAGATAA | -0.00508
AGATCGCA | 0.0387
AACAGTCC | -0.322
AGGAAGCG | -0.1
GGCGGGCA | -0.313
ACGGACCT | -0.116
AGAAGGTG | -0.113
GGGGTAAA | 0.0723
AGTAGGAG | -0.233
AGAAAGCT | 0.0559
CCGCTAGA | -0.254
CTGGATGA | -0.152
GGGACTGA | -0.324
GCTGGGAC | -0.263
ACACTCGG | 0.0952
ATACACTG | 0.235
GACATACC | 0.124
AATCCGTA | -0.0718
GCACCCTA | -0.0932
AATCTTTC | -0.0768

Sequence | PBM E-score
GTATGAAC | 0.0608
AATCACTG | 0.098
GGTTATAC | 0.146
CACGTCTA | 0.22
CACTGCTC | -0.156
CGGTGCGC | -0.279
AGGTCTGG | -0.101
AAGACACT | 0.0877
ATGAGAAT | 0.108
CGCGAGCG | -0.193
ATATACCC | -0.0701
AGTTCTTA | -0.00952
CGCACGAG | -0.134
CTATACAG | 0.0549
CACCAACC | -0.105
ACAATTAA | 0.214
ACAGTCAG | -0.0101
CACACTGG | 0.0142
CAATCAGA | -0.154
AGAAGCGA | 0.0343
CGTGTCGC | 0.214
AAACCATA | 0.0906
GAGCCATA | -0.153
CCACGCGA | -0.134
AAGAGCAC | 0.0584

Sequence | PBM E-score
AAGATGAG | -0.105
GAGCTAGC | -0.0256
CCAAGGGG | -0.225
GATAGTGA | -0.0711
CTCGCTAC | -0.181
CGGGAGTC | -0.258
CGTTAACA | 0.34
ATAACAGG | 0.194
AATAACGT | 0.299
AACACTTA | 0.275
CATGGATA | 0.195
GCGAAAAC | -0.0286
ATCGCGAA | 0.0801
CTGGGCGA | -0.217
AAGGCGAT | -0.0245
CGAGTTGC | -0.0335
ATCGACCG | -0.223
GCCTCACA | -0.0267
CGAGAAGA | -0.174
